About 540 (0.36%) of roughly 150,000 compounds showed an effect of 50% or more. This is one part of the list.

In the test the test system is Plasmodium falciparum. As to the kind of experiment: Primary screen in NF54 nanoGlo assay, in single point, at 2uM, 72h; a lower Z score goes with more inhibition. The test is classed as functional, Erythrocyte. To be noted: timepoint 72 hour.
As a reminder, the % Inhibition is the change of the read-out against control, counted positive when it falls. Take `C[C@H]1CCOCCN1C(=O)Nc1ccccc1N1CCCC1`: the “% Inhibition” value is recorded as -14% and the Z score is on record as 1.65.
For `c1ccc(CCCO[C@H]2CCN(c3ccc4nnnn4n3)C2)cc1` the same measures were -3% and 0.57.
As for `O=C(CS(=O)(=O)Cc1ccccc1C1CC1)Nc1ccccc1`, the “% Inhibition” value was -3% and the Z score worked out at 0.31.
On the same counts, the results for `Cc1ccc(-c2ccc(C(=O)N3CCCN(C(=O)C(F)(F)F)CC3)cc2)o1` are -17% and 2.19.
For `O=C(c1cnc(-c2cccs2)nc1)N1CCN(CCO)C[C@H](O)C1` the same measures were -11% and 1.02.
On the same counts, the results for `CC(C)(C)OC(=O)N1CCC[C@](C)(C(=O)Nc2cccc(C(=O)NC3CC3)c2)C1` are -19% and 1.92.
In the case of `CCOC[C@@H](O)CN(Cc1c(C)nn(-c2ccccc2)c1Oc1cccc(C)c1)C1CC1`, the “% Inhibition” value amounted to 33% and the Z score is listed as -4.48.
For the compound `Cc1csc(NC(=O)CN2CC[C@H](O)C2)n1`, the “% Inhibition” value is -13% and the Z score came to 1.91.
On the same counts, the results for `Cc1noc([C@H](C)NC(=O)Cc2ccc3[nH]c(C)nc3c2)n1` are 0% and 0.01.
On to `CN1CCCC[C@@H]1CN(C)S(=O)(=O)CC1CCCC1`, for which the “% Inhibition” value is -14% and the Z score was 1.27.
On the same counts, the results for `CCCC[C@H](NC(=O)c1ccc(-c2cnc(=O)[nH]c2)cc1)C(N)=O` are 0% and 0.
As to `Cc1cc(C(=O)NCc2ccc(-c3cnn(C)c3)nc2)c(C)o1`, the “% Inhibition” value stood at 10% and the Z score is on record as -1.27.
For `Cc1cccc(S(=O)(=O)N2CCC(n3cnnc3C(C)C)CC2)c1`, the “% Inhibition” value is -8% and the Z score is 1.32.
With `Cc1cc(C(=O)N2CCN(Cc3nc(-c4cccs4)no3)CC2)on1`, the “% Inhibition” value is on record as -4% and the Z score is 0.5.
For `COc1ccc(CN2C(=O)N[C@@H](CC(=O)Nc3nccs3)C2=O)cc1` the same measures were -2% and 0.32.
On the same counts, the results for `OCc1cccc(N(Cc2ncccn2)C2Cc3ccccc3C2)c1` are -16% and 1.89.
On the same counts, the results for `CNC(=O)CC1CCN(C(=O)[C@]2(C)CCOc3ccccc32)CC1` are 1% and -0.14.
Consider `COc1ccc(CNC(=O)[C@@H](C)NC(=O)c2cccnc2)cc1OC`, for which the “% Inhibition” value is -6% and the Z score is 0.74.
For `COCCn1ccc(NC(=O)NC2CCC(C)(C)CC2)n1` the same measures were -6% and 0.64.
On the same counts, the results for `O=C(Nc1cc(Cl)ccc1Oc1ccc(Br)c2ccccc12)c1cc(Cl)cc(Cl)c1O` are -4% and 0.53.
On the same counts, the results for `Cn1c(=O)sc2cc(S(=O)(=O)N3CCN(c4ccc(Cl)cc4)CC3)ccc21` are -7% and 1.08.
Consider `NC[C@H]1CN(Cc2cccn2-c2ccc(Cl)cn2)CCO1`, for which the “% Inhibition” value is given as -4% and the Z score stood at 0.5.
For `CN(CC[C@H]1CCCCN1C)Cc1cccc(C#N)c1` the same measures were 7% and -0.94.
For `Cc1oc(C#N)cc1C(=O)N1CC(C)CC1c1cccnc1` (centres undefined) the same measures were 6% and -0.66.
On the same counts, the results for `Cc1noc2nc(C3CC3)cc(C(=O)Nc3ccc4c(c3)OCCO4)c12` are 1% and -0.13.
As to `O=C(CC1CC(c2ccccc2)C1)N1CCC(CCCO)CC1` (centres undefined), the “% Inhibition” value is on record as -13% and the Z score was determined as 1.72.
Consider `COCCNC(=O)[C@H]1CCCN(S(=O)(=O)c2ccc3c(c2)nnn3C(C)C)C1`, for which the “% Inhibition” value is -20% and the Z score is on record as 1.77.
For `Cc1ccc(-c2ccc3nn(Cc4ccc(F)cc4Cl)c(=O)n3n2)cc1C` the same measures were -12% and 1.55.
On the same counts, the results for `O=C(c1ccc2c(c1)OCO2)N1CCC2(CC1)OC[C@@H](C(=O)N1CCOCC1)N2C(=O)c1ccc(F)cc1` are -1% and 0.15.
Consider `O=C(NCc1scnc1-c1ccccc1)c1ccon1`, for which the “% Inhibition” value amounted to 5% and the Z score is reported as -0.75.
On the same counts, the results for `CCCn1cc(N[C@@H](C)C(=O)NC2CC2)cn1` are -2% and 0.18.
For `O=C(O)c1ccc(N2CCC(N3CCCCC3)CC2)c(NS(=O)(=O)c2cccc(F)c2)c1` the same measures were -15% and 1.44.
On the same counts, the results for `CCc1ccc(CN2CCN(S(=O)(=O)Cc3ccon3)CC2)o1` are 17% and -1.71.
Take `O=C(NC1CCCC1)c1cc2c(Cl)ccc3c2n1CCO3`: the “% Inhibition” value is given as 33% and the Z score is reported as -4.75.
On to `Clc1ccccc1Cn1cc(-c2nc(-c3ccc4[nH]cnc4c3)no2)nn1`, for which the “% Inhibition” value is -9% and the Z score amounted to 1.27.
Consider `CC(C)c1ccc(C(C)(C)C)cc1S(N)(=O)=O`, for which the “% Inhibition” value is listed as -10% and the Z score is 1.29.
On the same counts, the results for `COc1cc2c(cc1CN1CCC[C@H]1c1ccco1)OCCCO2` are -23% and 2.51.
For `O=S(=O)(c1cc(Cl)c(Br)cc1Cl)N(CCO)CCO` the same measures were -6% and 0.57.
For `Cc1ncn(-c2cc(NCCNC(=O)c3cnccn3)ncn2)c1C` the same measures were -15% and 2.16.
For `COc1cc2c(cc1OC)CN(C(=O)CN(C)[C@@H](C)c1ccccc1F)CC2`, the “% Inhibition” value was 2% and the Z score was -0.18.
For `CC(C)CN1CCC(N[C@H]2CCc3c(O)cccc32)CC1` the same measures were 10% and -0.87.
In the case of `COC[C@H](C)N(Cc1cc(F)ccc1F)C(=O)c1c[nH]nc1-n1cnnn1`, the “% Inhibition” value is listed as -12% and the Z score came to 1.76.

Source of the values: ChEMBL document CHEMBL4888484, “Replenishing the malaria drug discovery pipeline: Screening and hit evaluation of the MMV Hit Generation Library 1 (HGL1) against asexual blood stage Plasmodium falciparum ,using a nano luciferase reporter read-out” (2022).
